The supplement of paper PMC8948288
Shown are siRNA guide strands that differ only in the seed, positions 2 to 7.

Assays:
H4 = test: cell viability relative to siNT1 (ATP content); H4 human neuroglioma and GL261 mouse glioma; higher = less toxic; details: siRNA concentration 10 nM; 96 h; human
Description: (§1)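 Arrayed screen of all 4096 6mer seeds. Each seed sits at guide-strand positions 2-7 of a neutral 19mer siRNA backbone (siNT1-based, passenger strand 2'-O-methyl modified at positions 1-2 to block RISC loading, 3' DNA overhangs). The guide strand is built here as U + seed + ACAUGUAAACCA. Cells were reverse transfected in triplicate in 384-well plates (H4 at 10 nM, GL261 at 25 nM) with Lipofectamine RNAiMAX. Viability was read as ATP content (CellTiter-Glo) 96 h after transfection and normalised to siNT1 (%).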

GL261 = test: as above; details: siRNA concentration 25 nM; 96 h; mouse
Description: as §1
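Further: cells reverse transfected with siRNA duplexes via lipid reagent, ATP read by luminescence, triplicate wells, values scaled to mean viability with non-targeting control siNT1.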

## UAGGCUUACAUGUAAACCA
H4
  cell viability: 64.4%
GL261
  cell viability: 39.5%

## UAGGGAAACAUGUAAACCA
H4
  cell viability: 88.7%
GL261
  cell viability: 61.5%

## UAGGGACACAUGUAAACCA
H4
  cell viability: 29.9%
GL261
  cell viability: 30.8%

## UAGGGAGACAUGUAAACCA
H4
  cell viability: 73.3%
GL261
  cell viability: 50.1%

## UAGGGAUACAUGUAAACCA
H4
  cell viability: 45.1%
GL261
  cell viability: 46.4%

## UAGGGCAACAUGUAAACCA
H4
  cell viability: 73.5%
GL261
  cell viability: 38.7%

## UAGGGCCACAUGUAAACCA
H4
  cell viability: 18.5%
GL261
  cell viability: 15.1%

## UAGGGCGACAUGUAAACCA
H4
  cell viability: 73.9%
GL261
  cell viability: 30.2%

## UAGGGCUACAUGUAAACCA
H4
  cell viability: 29.1%
GL261
  cell viability: 17.4%

## UAGGGGAACAUGUAAACCA
H4
  cell viability: 68.4%
GL261
  cell viability: 41.7%

## UAGGGGCACAUGUAAACCA
H4
  cell viability: 13.8%
GL261
  cell viability: 16.2%

## UAGGGGGACAUGUAAACCA
H4
  cell viability: 44.4%
GL261
  cell viability: 42.9%

## UAGGGGUACAUGUAAACCA
H4
  cell viability: 21%
GL261
  cell viability: 10.7%

## UAGGGUAACAUGUAAACCA
H4
  cell viability: 115%
GL261
  cell viability: 54.9%

## UAGGGUCACAUGUAAACCA
H4
  cell viability: 20.2%
GL261
  cell viability: 10.5%

## UAGGGUGACAUGUAAACCA
H4
  cell viability: 102%
GL261
  cell viability: 44.1%

## UAGGGUUACAUGUAAACCA
H4
  cell viability: 102%
GL261
  cell viability: 37.6%

## UAGGUAAACAUGUAAACCA
H4
  cell viability: 83.1%
GL261
  cell viability: 57.3%

## UAGGUACACAUGUAAACCA
H4
  cell viability: 50.7%
GL261
  cell viability: 33.3%

## UAGGUAGACAUGUAAACCA
H4
  cell viability: 86.3%
GL261
  cell viability: 55.5%

## UAGGUAUACAUGUAAACCA
H4
  cell viability: 53.6%
GL261
  cell viability: 32.5%

## UAGGUCAACAUGUAAACCA
H4
  cell viability: 97.5%
GL261
  cell viability: 33.7%

## UAGGUCCACAUGUAAACCA
H4
  cell viability: 38.5%
GL261
  cell viability: 13.3%

## UAGGUCGACAUGUAAACCA
H4
  cell viability: 70.8%
GL261
  cell viability: 46.6%

## UAGGUCUACAUGUAAACCA
H4
  cell viability: 10.2%
GL261
  cell viability: 23.6%

## UAGGUGAACAUGUAAACCA
H4
  cell viability: 74.5%
GL261
  cell viability: 64.2%

## UAGGUGCACAUGUAAACCA
H4
  cell viability: 41.9%
GL261
  cell viability: 29.4%

## UAGGUGGACAUGUAAACCA
H4
  cell viability: 56.5%
GL261
  cell viability: 10.8%

## UAGGUGUACAUGUAAACCA
H4
  cell viability: 69.8%
GL261
  cell viability: 35.1%

## UAGGUUAACAUGUAAACCA
H4
  cell viability: 87.9%
GL261
  cell viability: 59.3%

## UAGGUUCACAUGUAAACCA
H4
  cell viability: 73.1%
GL261
  cell viability: 34.7%

## UAGGUUGACAUGUAAACCA
H4
  cell viability: 73.8%
GL261
  cell viability: 81.6%

## UAGGUUUACAUGUAAACCA
H4
  cell viability: 85.2%
GL261
  cell viability: 65%

## UAGUAAAACAUGUAAACCA
H4
  cell viability: 96.8%
GL261
  cell viability: 55%

## UAGUAACACAUGUAAACCA
H4
  cell viability: 58.2%
GL261
  cell viability: 17.4%

## UAGUAAGACAUGUAAACCA
H4
  cell viability: 106%
GL261
  cell viability: 20.6%

## UAGUAAUACAUGUAAACCA
H4
  cell viability: 97.4%
GL261
  cell viability: 27%

## UAGUACAACAUGUAAACCA
H4
  cell viability: 97%
GL261
  cell viability: 28.1%

## UAGUACCACAUGUAAACCA
H4
  cell viability: 47.2%
GL261
  cell viability: 6.78%

## UAGUACGACAUGUAAACCA
H4
  cell viability: 85.5%
GL261
  cell viability: 50.7%

## UAGUACUACAUGUAAACCA
H4
  cell viability: 51.9%
GL261
  cell viability: 20%

## UAGUAGAACAUGUAAACCA
H4
  cell viability: 85.2%
GL261
  cell viability: 72.9%

## UAGUAGCACAUGUAAACCA
H4
  cell viability: 22.5%
GL261
  cell viability: 11.1%

## UAGUAGGACAUGUAAACCA
H4
  cell viability: 67.1%
GL261
  cell viability: 32.7%

## UAGUAGUACAUGUAAACCA
H4
  cell viability: 36.2%
GL261
  cell viability: 18.8%

## UAGUAUAACAUGUAAACCA
H4
  cell viability: 90.2%
GL261
  cell viability: 60.6%

## UAGUAUCACAUGUAAACCA
H4
  cell viability: 53%
GL261
  cell viability: 52.1%

## UAGUAUGACAUGUAAACCA
H4
  cell viability: 86%
GL261
  cell viability: 59.6%

## UAGUAUUACAUGUAAACCA
H4
  cell viability: 81.8%
GL261
  cell viability: 62.6%

## UAGUCAAACAUGUAAACCA
H4
  cell viability: 87.2%
GL261
  cell viability: 55.3%

## UAGUCACACAUGUAAACCA
H4
  cell viability: 57.9%
GL261
  cell viability: 32.9%

## UAGUCAGACAUGUAAACCA
H4
  cell viability: 81.3%
GL261
  cell viability: 42.9%

## UAGUCAUACAUGUAAACCA
H4
  cell viability: 69.6%
GL261
  cell viability: 31.5%

## UAGUCCAACAUGUAAACCA
H4
  cell viability: 84.9%
GL261
  cell viability: 17.5%

## UAGUCCCACAUGUAAACCA
H4
  cell viability: 50.5%
GL261
  cell viability: 7.06%

## UAGUCCGACAUGUAAACCA
H4
  cell viability: 67.1%
GL261
  cell viability: 29.7%

## UAGUCCUACAUGUAAACCA
H4
  cell viability: 45.1%
GL261
  cell viability: 23.5%

## UAGUCGAACAUGUAAACCA
H4
  cell viability: 120%
GL261
  cell viability: 44.9%

## UAGUCGCACAUGUAAACCA
H4
  cell viability: 56.6%
GL261
  cell viability: 24.2%

## UAGUCGGACAUGUAAACCA
H4
  cell viability: 82.3%
GL261
  cell viability: 42.4%

## UAGUCGUACAUGUAAACCA
H4
  cell viability: 85.1%
GL261
  cell viability: 49.2%

## UAGUCUAACAUGUAAACCA
H4
  cell viability: 108%
GL261
  cell viability: 53.5%

## UAGUCUCACAUGUAAACCA
H4
  cell viability: 36.5%
GL261
  cell viability: 18.1%

## UAGUCUGACAUGUAAACCA
H4
  cell viability: 90.3%
GL261
  cell viability: 34.5%

## UAGUCUUACAUGUAAACCA
H4
  cell viability: 78.5%
GL261
  cell viability: 36.7%

## UAGUGAAACAUGUAAACCA
H4
  cell viability: 92.8%
GL261
  cell viability: 75.6%

## UAGUGACACAUGUAAACCA
H4
  cell viability: 41%
GL261
  cell viability: 55.1%

## UAGUGAGACAUGUAAACCA
H4
  cell viability: 58%
GL261
  cell viability: 37.6%

## UAGUGAUACAUGUAAACCA
H4
  cell viability: 63.1%
GL261
  cell viability: 43.1%

## UAGUGCAACAUGUAAACCA
H4
  cell viability: 93.3%
GL261
  cell viability: 41.8%

## UAGUGCCACAUGUAAACCA
H4
  cell viability: 63.9%
GL261
  cell viability: 27.3%

## UAGUGCGACAUGUAAACCA
H4
  cell viability: 83.7%
GL261
  cell viability: 50.2%

## UAGUGCUACAUGUAAACCA
H4
  cell viability: 84.7%
GL261
  cell viability: 54.5%

## UAGUGGAACAUGUAAACCA
H4
  cell viability: 51.9%
GL261
  cell viability: 35.3%

## UAGUGGCACAUGUAAACCA
H4
  cell viability: 34%
GL261
  cell viability: 14.5%

## UAGUGGGACAUGUAAACCA
H4
  cell viability: 56.8%
GL261
  cell viability: 14.1%

## UAGUGGUACAUGUAAACCA
H4
  cell viability: 44.6%
GL261
  cell viability: 25.5%

## UAGUGUAACAUGUAAACCA
H4
  cell viability: 96.2%
GL261
  cell viability: 70.6%

## UAGUGUCACAUGUAAACCA
H4
  cell viability: 38.2%
GL261
  cell viability: 12.3%

## UAGUGUGACAUGUAAACCA
H4
  cell viability: 61.3%
GL261
  cell viability: 25%

## UAGUGUUACAUGUAAACCA
H4
  cell viability: 67.7%
GL261
  cell viability: 38.9%

## UAGUUAAACAUGUAAACCA
H4
  cell viability: 103%
GL261
  cell viability: 62.1%

## UAGUUACACAUGUAAACCA
H4
  cell viability: 24.9%
GL261
  cell viability: 34.6%

## UAGUUAGACAUGUAAACCA
H4
  cell viability: 87.4%
GL261
  cell viability: 40.2%

## UAGUUAUACAUGUAAACCA
H4
  cell viability: 78.3%
GL261
  cell viability: 54.9%

## UAGUUCAACAUGUAAACCA
H4
  cell viability: 78.5%
GL261
  cell viability: 34.4%
